# Reference: PubChem BioAssay (NCATS)
# Where “and” joins values, the source holds several entries; their conditions need not be identical. Equal entries are not always repeated. Inconclusive results, whose numbers are uncertain, are shown with a selection of clear calls. For some of these results: Where the call is inconclusive, the potency comes from a doubtful curve fit. For some of these results: “Side channel” marks fits to a control or component signal instead of the main read-out. Calls of active or inactive are those of the source. Unless noted, calls follow the shape of the dose curve; as a rule, active = well fitted curve in the direction sought with a large enough effect; inconclusive = small, poorly fitted or top-dose-only effect, or another doubt; inactive = no such curve, though single readings can be large; an effect the other way counts as inactive or inconclusive.
# Assays:
# [1] = Cell Viability - Mesenchymal (AID 546); details: mesenchymal cells viability, qHTS; at 91.7 µM (top of the series);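 also: cells exposed to compound for 40 hours before reading; 0% = DMSO only and -100% = 100 µM tamoxifen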
# Method in brief: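 In this qHTS cytotoxicity format, glomerulus-derived human mesenchymal kidney cells received compound for 40 hr, then luciferase-based ATP quantitation. Concentration-response data were fitted with the Hill equation.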
# [2] = Cell Viability - LYMP2-003 (AID 965); details: LYMP2-003 lymphoblastoid cell viability; activity change, negative = cytotoxicity: at 92.2 µM (top of the series);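 also: potency is read from the fitted curve at half-maximal effect; cells exposed to compounds for 24 h before reading; nearly all actives have a fitted effect of over 50% in size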
# Method in brief: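 Seed 2500 lymphoblastoid cells/well; incubate 5 hr, 37 C; add compounds; incubate 24 hr, 37 C; add CellTiter-Glo, 30 min RT; read luminescence. AC50 from Hill fit.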
# [3] = Cell Viability - LYMP2-004 (AID 966); details: LYMP2-004 lymphoblastoid cell viability, qHTS; activity change, negative = cytotoxicity: at 92.2 µM (top of the series);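 also: plate controls were DMSO only for no effect and tetraoctylammonium bromide control for full effect; nearly all actives have a fitted effect of over 65% in size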
# Method in brief: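 qHTS cytotoxicity: human lymphoblastoid line, 24 hr compound treatment, 37 C, complete medium. Viability read as cellular ATP via luciferase luminescence; tetraoctylammonium bromide served as positive control.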
# [4] = molecular target: Peroxisome proliferator-activated receptor delta (Homo sapiens) (UniProt Q03181); experiment: qHTS assay for small molecule antagonists of peroxisome proliferator-activated receptor delta signaling (AID 588535; active = well fitted inhibition curve with a large enough effect in the signal ratio, with a control signal flat, not every such curve was filed as active; inconclusive = small, poorly fitted or top-dose-only effect, or effect the other way, or a change in a side signal; inactive = no such curve, though single readings can be large or run the other way; the % refers to the signal ratio); details: HEK293T PPARd-UAS-bla, beta-lactamase FRET ratio, 18 h; activity change, negative = inhibition: at 76.7 µM (top of the series) unless noted
# Method in brief: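 Inhibition of PPAR-delta response element-driven beta-lactamase expression is measured in HEK293T cells exposed to a compound titration series for 18 hrs at 37 C. Half-maximal inhibition comes from Hill equation fitting.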
# [5] = qHTS assay for small molecule agonists of the antioxidant response element (ARE) signaling pathway (AID 651741; active = well fitted activation curve with a large enough effect in the signal ratio; inconclusive = small, poorly fitted or top-dose-only effect, or effect the other way, or a change in a side signal; the % refers to the signal ratio; also: potency is read from the fitted curve at half-maximal effect; as to activation: % of control where 0% means no effect); details: HepG2 ARE-bla reporter, beta-lactamase FRET ratio, 16 h; activation: at 96 µM (top of the series) unless noted
# Method in brief: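 Reporter: beta-lactamase under ARE, stably in HepG2. Exposure: 16 h, 37 C, compounds delivered in DMSO by pin tool after 5 h cell preincubation. Readout: FRET substrate fluorescence after 2 h at RT.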
# [6] = qHTS assay to identify small molecules that stimulate interleukin-8 (IL-8) secretion (AID 651758; active = well fitted activation curve with a large enough effect in the signal ratio; inconclusive = small, poorly fitted or top-dose-only effect, or effect the other way, or a change in a side signal; the % refers to the signal ratio; also: 0% is about no effect); details: HTRF ratio (665/615); activation: at 92.2 µM (top of the series)
# Method in brief: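 Quantitative HTS in THP-1 monocytic cells at 2000 cells per well, with 16 hrs compound incubation at 37 C. IL-8 in the medium was then quantified by HTRF immunoassay, read after 1-3 hrs at room temperature.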
# [7] = molecular target: Nuclear receptor ROR-gamma (Homo sapiens) (UniProt P51449); experiment: qHTS assay for small molecule antagonists of the retinoid-related orphan receptor gamma (ROR-gamma) signaling pathway (AID 651802);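 also: CHO cells with doxycycline-induced ROR-gamma expression; % is scaled to controls: 0 for no effect and ±100 for the full control effect; nearly all actives have a fitted effect of over 60% in size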
# Method in brief: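 Steps: cells dispensed; compound or DMSO transferred by pin tool; doxycycline added to induce the ROR response element-driven luciferase; plates held 16hr at 37C; ONE-Glo added and luminescence measured.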
# [8] = Cell Viability - SH-SY5Y (AID 544); details: SH-SY5Y neuroblastoma cell viability; at 92.2 µM (top of the series);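 also: cells exposed to compound for 40 hours; 0% = DMSO alone and -100% = 100 µM tamoxifen; nearly all actives have a fitted effect of over 55% in size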
# Method in brief: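 Cells were plated at 1500 per well and allowed 5 hr at 37 °C. Compounds were added across a concentration range and incubated 40 hr at 37 °C. CellTiter-Glo was added for 20 min at room temperature before luminescence reading.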
# [9] = MultiTox-Fluor Cytotoxicity Assay - LYMP1-002 - Dead Cells (AID 960); details: LYMP1-002 lymphoblastoid cells, dead-cell protease fluorescence; cytotoxicity (dead cells): at 46.1 µM (top of the series); also: potency is read from the fitted curve at half-maximal effect; nearly all actives have a fitted effect of over 60% in size
# Method in brief: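 Cells were plated, rested 5 hr, then treated with compound dilution series for 16 hr at 37 C. After adding substrate reagent and 60 min at room temperature, dead-cell protease fluorescence gave concentration-response curves fitted by the Hill equation.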
# [10] = Cell Viability - LYMP2-017 (AID 972); details: LYMP2-017 lymphoblastoid cell viability; activity change, negative = cytotoxicity: at 92.2 µM (top of the series);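 also: potency is read from the fitted curve at half-maximal effect; cells exposed to compound for 24 hours at 37 °C; nearly all actives have a fitted effect of over 55% in size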
# Method in brief: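 Cytotoxicity is scored as a concentration-dependent drop in cellular ATP in a human lymphoblastoid line after 24 hr treatment at 37 C. Values are AC50s from Hill-equation modelling.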
# [11] = Cell Viability - LYMP2-021 (AID 974);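 also: compound exposure lasts 24 hours at 37 °C; % is scaled to controls: 0 for no effect and ±100 for the full control effect; nearly all actives have a fitted effect of over 55% in size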
# Method in brief: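 Loss of cellular ATP, measured with a luciferase-based CellTiter-Glo readout, serves as the toxicity signal in human lymphoblastoid cells treated for 24 hours at 37 C. Potency is reported as AC50 from a standard Hill model.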
# [12] = Cell Viability - LYMP2-020 (AID 986); details: activity change, negative = viability loss: at 92.2 µM (top of the series);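 also: potency is read from the fitted curve at half-maximal effect; cells exposed to compound for 24 h at 37 °C; nearly all actives have a fitted effect of over 55% in size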
# Method in brief: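 Seed 2500 cells per well and incubate 5 hr at 37 C. Add compounds at a concentration series and incubate 24 hr at 37 C. Add CellTiter-Glo, wait 30 min at RT, read luminescence, and fit a Hill curve for AC50.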
# [13] = Cell Viability - LYMP2-022 (AID 987)
# Method in brief: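 Cells were seeded at 2500 per well, rested 5 hr at 37 C, and treated with titrated compounds for 24 hr at 37 C. Cellular ATP was then quantified by luciferase luminescence, and AC50 values were derived from Hill-modelled concentration-response curves.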
# [14] = molecular target: Estrogen receptor (Homo sapiens) (UniProt P03372); experiment: qHTS assay for small molecule agonists of estrogen receptor alpha signaling (AID 588514; calls by dose curve; also: potency is read from the fitted curve at half-maximal effect; nearly all actives have a fitted effect of over 70% in size); details: ER-alpha-UAS-bla HEK293, beta-lactamase ratio, 18 h; activation: at 76.8 µM (top of the series), percent of full estradiol response, vehicle zero unless noted
# Method in brief: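 Efficacy is expressed against 20 nM 17-beta-estradiol (100%) and DMSO basal (0%); EC50 from Hill equation. Assay: beta-lactamase reporter in ER-alpha-UAS-bla HEK 293 cells, 18 h compound incubation, CCF4 detection.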
# [15] = molecular target: Bile acid receptor (Homo sapiens) (UniProt Q96RI1); experiment: qHTS assay for small molecule antagonists of farnesoid X receptor signaling (AID 588526; calls by dose curve; also: potency is read from the fitted curve at half-maximal effect; as to activity change, negative = inhibition: % is scaled to controls: 0 for no effect and ±100 for the full control effect); details: HEK293T FXR-UAS-bla, beta-lactamase ratio, antagonist mode; activity change, negative = inhibition: at 76.7 µM (top of the series)
# Method in brief: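 Concentration-response titrations were fitted to the Hill equation for half-maximal inhibition and maximal response, with data normalised to 50 uM chenodeoxycholic acid and DMSO control wells. Cells: FXR-UAS-bla HEK293T, dialyzed FBS.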
# [16] = molecular target: Glucocorticoid receptor (Homo sapiens) (UniProt P04150); experiment: qHTS assay for small molecule antagonists of glucocorticoid receptor signaling (AID 588533; active = well fitted inhibition curve with a large enough effect in the signal ratio, with a control signal flat, not every such curve was filed as active; inconclusive = small, poorly fitted or top-dose-only effect, or effect the other way, or a change in a side signal; the % refers to the signal ratio;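 also: cells stimulated with 2 nM dexamethasone as agonist; % is scaled to controls: 0 for no effect and ±100 for the full control effect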); details: HeLa MMTV-bla, GRE beta-lactamase ratio, antagonist mode, 18 h; activity change, negative = inhibition: at 76.8 µM (top of the series)
# [17] = molecular target: Peroxisome proliferator-activated receptor gamma (Homo sapiens) (UniProt P37231); experiment: qHTS assay for small molecule antagonists of peroxisome proliferator-activated receptor gamma signaling (AID 588537; active = well fitted inhibition curve with a large enough effect in the signal ratio, with a control signal flat, not every such curve was filed as active; inconclusive = small, poorly fitted or top-dose-only effect, or effect the other way, or a change in a side signal; the % refers to the signal ratio;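 also: reporter cells co-stimulated with 50 nM rosiglitazone agonist during compound treatment; % of control where 0% means no effect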); details: HEK293 PPARg-UAS-bla, beta-lactamase ratio, antagonist mode; activity, negative = inhibition: at 76.8 µM (top of the series) unless noted
# Method in brief: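 Compounds are tested as concentration series for inhibition of rosiglitazone-driven (50 nM) reporter expression in GeneBLAzer PPAR-gamma-UAS-bla HEK293 cells. After 16 h at 37 C, CCF4 substrate is added for 2 h at room temperature and blue/green fluorescence is measured.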
# [18] = molecular target: Retinoic acid receptor RXR-alpha (Homo sapiens) (UniProt P19793); experiment: qHTS assay for small molecule agonists of retinoid X receptor alpha signaling (AID 588544; calls by dose curve; also: potency is read from the fitted curve at half-maximal effect); details: HEK293T RXRa-UAS-bla, beta-lactamase reporter, 18 h; activation: at 76.7 µM (top of the series)
# [19] = qHTS assay for small molecule agonists of the antioxidant response element (ARE) signaling pathway measured by Nrf2-dependant transcriptional activity (AID 720636; active = well fitted curve in the direction sought with a large enough effect in the repeat runs; inconclusive = weak or mixed curves; inactive = no such curve, though single readings can be large; an effect the other way counts as inactive or inconclusive; also: potency is read from the fitted curve at half-maximal effect)
# Method in brief: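 First, ARE-luc HepG2 cells attached for 6 hr at 37 C in 1% dialyzed FBS medium. Next, compound or DMSO was added and incubated 16 hr. Finally, ONE-Glo reagent was added and luminescence measured after 30 min.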
# [20] = MultiTox-Fluor Cytotoxicity Assay - LYMP1-003 - Live Cells (AID 962); details: LYMP1-003 lymphoblastoid cells, MultiTox-Fluor live-cell protease fluorescence; at 92.2 µM (top of the series);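 also: cells exposed to compound for 16 hours at 37 °C; 0% = DMSO only and full loss = 92 µM tetraoctylammonium bromide; cytotoxic hits lower the live-cell protease signal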
# Method in brief: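 Acute cytotoxicity is scored as a drop in live-cell protease activity in human lymphoblastoid LYMP1-003 cells after 16 hr compound exposure at 37 C. AC50 values come from Hill-equation modelling of concentration-response data.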
# [21] = Cell Viability - LYMP2-005 (AID 967);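 also: potency is read from the fitted curve at half-maximal effect; cells exposed to compound for 24 h at 37 °C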
# Method in brief: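 Acute cytotoxicity is scored as a concentration-dependent drop in intracellular ATP in human lymphoblastoid LYMP2-005 cells after 24 h compound treatment. ATP is quantified by luciferase luminescence, and AC50 is derived by Hill-equation modelling.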
# [22] = Cell Viability - LYMP2-010 (AID 981)
# Method in brief: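 Steps: seed 2500 LYMP2-010 cells per well; incubate 5 hr at 37 C; add compound; incubate 24 hr at 37 C; add CellTiter-Glo, wait 30 min at room temperature; read luminescence. Concentration-response fitted to Hill equation for AC50.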
# [23] = Cell Viability - LYMP2-014 (AID 983);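 also: cells exposed to compound for 24 h at 37 °C; plate controls were DMSO only for no effect and 92 µM tetraoctylammonium bromide for full effect; nearly all actives have a fitted effect of over 50% in size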
# Method in brief: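 Cells are plated at 2500/well and left 5 hr at 37 C. Compounds are added across a concentration range and incubated 24 hr at 37 C in complete medium. CellTiter-Glo is added, and luminescence is read after 30 min at room temperature.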
# [24] = molecular target: Estrogen receptor (Homo sapiens) (UniProt P03372); experiment: qHTS assay for small molecule antagonists of estrogen receptor alpha signaling (AID 588513; active = well fitted curve in the direction sought with a large enough effect in the signal ratio, with a control signal flat, not every such curve was filed as active; inconclusive = small, poorly fitted or top-dose-only effect, or effect the other way, or a change in a side signal; inactive = no such curve, though single readings can be large or run the other way; the % refers to the signal ratio; also: % is scaled to controls: 0 for no effect and ±100 for the full control effect); details: ER-alpha-UAS-bla HEK293, beta-lactamase ratio, antagonist mode; activity, negative = inhibition: at 76.9 µM (top of the series) unless noted
# Method in brief: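 Fluorescence from CCF4 substrate after 2 h at room temperature gave reporter activity; cells had been exposed to compound and 0.5nM 17-beta-estradiol for 18 h at 37 C. Hill-equation fitting yielded IC50 and maximal response.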
# [25] = molecular target: Peroxisome proliferator-activated receptor delta (Homo sapiens) (UniProt Q03181); experiment: qHTS assay for small molecule agonists of peroxisome proliferator-activated receptor delta signaling (AID 588534; calls by dose curve;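 also: 0% = DMSO basal wells and 100% = positive control agonist at 10 µM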); details: HEK293T PPARdelta-UAS-bla, beta-lactamase ratio, 18 h; activation: at 76.7 µM (top of the series) unless noted
# Method in brief: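 Agonist-mode qHTS; reporter cells, 5 hrs 37 C pre-incubation; compound titration, 18 hrs 37 C; CCF4 dye, 2 hrs RT; fluorescence read. EC50/efficacy via Hill fit.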
# [26] = molecular target: Peroxisome proliferator-activated receptor gamma (Homo sapiens) (UniProt P37231); experiment: qHTS assay for small molecule agonists of peroxisome proliferator-activated receptor gamma signaling (AID 588536; active = well fitted curve in the direction sought with a large enough effect in the signal ratio, with a control signal flat, not every such curve was filed as active; inconclusive = small, poorly fitted or top-dose-only effect, or effect the other way, or a change in a side signal; inactive = no such curve, though single readings can be large or run the other way; the % refers to the signal ratio;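 also: 0% = DMSO basal wells and 100% = rosiglitazone at 2 µM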); details: HEK293 PPARg-UAS-bla, beta-lactamase ratio, 16 h; activation: at 76.7 µM (top of the series), percent of rosiglitazone response, DMSO as zero
# Method in brief: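 Cells were plated and held 6–6.5 h at 37 C, then compounds were added as a titration series. After a further 16 h, CCF4 dye was loaded for 2 h at room temperature and emission at 460/530 nm recorded.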
# Tags tell the direction and shape of the fitted curve or compound fluorescence and quenching.
# Sequence of UniProt P37231 (P37231 whole entry, looked up): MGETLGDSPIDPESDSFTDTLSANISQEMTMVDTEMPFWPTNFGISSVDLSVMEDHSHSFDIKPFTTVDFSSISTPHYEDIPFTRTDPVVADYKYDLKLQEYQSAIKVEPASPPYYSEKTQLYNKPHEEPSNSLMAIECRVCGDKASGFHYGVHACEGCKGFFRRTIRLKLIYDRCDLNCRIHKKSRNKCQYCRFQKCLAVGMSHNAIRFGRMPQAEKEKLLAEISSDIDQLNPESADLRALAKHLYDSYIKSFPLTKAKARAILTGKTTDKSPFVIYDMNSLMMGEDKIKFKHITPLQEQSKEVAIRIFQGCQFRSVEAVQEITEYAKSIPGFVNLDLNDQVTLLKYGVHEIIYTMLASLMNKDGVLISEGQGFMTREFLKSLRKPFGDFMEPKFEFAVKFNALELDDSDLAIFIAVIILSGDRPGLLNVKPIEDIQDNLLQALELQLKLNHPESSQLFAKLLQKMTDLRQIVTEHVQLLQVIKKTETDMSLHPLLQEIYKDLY
# Sequence of UniProt Q03181 (Q03181 whole entry, looked up): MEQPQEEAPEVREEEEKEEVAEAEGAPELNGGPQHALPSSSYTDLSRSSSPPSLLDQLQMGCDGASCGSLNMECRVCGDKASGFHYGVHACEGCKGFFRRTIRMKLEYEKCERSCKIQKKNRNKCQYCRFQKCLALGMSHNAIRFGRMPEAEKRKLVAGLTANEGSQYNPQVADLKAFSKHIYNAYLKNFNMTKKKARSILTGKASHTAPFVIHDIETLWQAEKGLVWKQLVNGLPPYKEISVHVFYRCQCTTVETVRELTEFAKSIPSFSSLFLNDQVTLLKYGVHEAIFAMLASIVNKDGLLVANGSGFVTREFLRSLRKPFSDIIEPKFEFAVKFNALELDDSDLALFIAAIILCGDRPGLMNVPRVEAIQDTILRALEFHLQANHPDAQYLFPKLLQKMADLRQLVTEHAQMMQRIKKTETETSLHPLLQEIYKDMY
# Sequence of UniProt P03372 (P03372 whole entry, looked up): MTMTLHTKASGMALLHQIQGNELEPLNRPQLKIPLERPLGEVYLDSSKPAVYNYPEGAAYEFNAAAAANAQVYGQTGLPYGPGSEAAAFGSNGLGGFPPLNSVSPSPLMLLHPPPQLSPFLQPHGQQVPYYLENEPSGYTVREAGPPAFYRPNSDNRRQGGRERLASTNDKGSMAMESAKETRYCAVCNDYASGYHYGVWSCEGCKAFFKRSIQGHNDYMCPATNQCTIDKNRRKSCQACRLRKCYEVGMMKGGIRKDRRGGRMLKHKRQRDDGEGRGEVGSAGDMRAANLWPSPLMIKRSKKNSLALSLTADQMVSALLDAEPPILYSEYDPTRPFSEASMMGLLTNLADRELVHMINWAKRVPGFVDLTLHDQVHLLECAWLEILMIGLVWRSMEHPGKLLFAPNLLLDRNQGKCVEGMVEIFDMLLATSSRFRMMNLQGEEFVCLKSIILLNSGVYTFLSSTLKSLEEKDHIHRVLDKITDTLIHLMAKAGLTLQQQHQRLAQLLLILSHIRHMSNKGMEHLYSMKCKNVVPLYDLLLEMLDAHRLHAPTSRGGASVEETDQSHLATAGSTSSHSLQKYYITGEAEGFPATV
# Sequence of UniProt P51449 (P51449 whole entry, looked up): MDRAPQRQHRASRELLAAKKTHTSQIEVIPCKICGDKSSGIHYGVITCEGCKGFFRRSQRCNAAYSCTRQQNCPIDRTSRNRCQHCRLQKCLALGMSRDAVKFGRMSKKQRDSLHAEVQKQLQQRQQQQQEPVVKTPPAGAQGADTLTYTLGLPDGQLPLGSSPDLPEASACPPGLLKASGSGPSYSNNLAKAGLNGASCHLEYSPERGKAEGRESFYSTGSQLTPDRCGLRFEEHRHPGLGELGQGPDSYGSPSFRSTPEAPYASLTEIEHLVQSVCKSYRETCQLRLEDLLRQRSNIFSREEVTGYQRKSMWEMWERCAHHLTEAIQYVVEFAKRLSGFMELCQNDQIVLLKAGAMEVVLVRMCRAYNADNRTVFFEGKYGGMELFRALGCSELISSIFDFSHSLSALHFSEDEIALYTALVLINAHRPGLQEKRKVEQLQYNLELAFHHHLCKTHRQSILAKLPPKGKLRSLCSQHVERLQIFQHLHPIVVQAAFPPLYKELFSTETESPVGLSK
# Sequence of UniProt P04150 (P04150 whole entry, looked up): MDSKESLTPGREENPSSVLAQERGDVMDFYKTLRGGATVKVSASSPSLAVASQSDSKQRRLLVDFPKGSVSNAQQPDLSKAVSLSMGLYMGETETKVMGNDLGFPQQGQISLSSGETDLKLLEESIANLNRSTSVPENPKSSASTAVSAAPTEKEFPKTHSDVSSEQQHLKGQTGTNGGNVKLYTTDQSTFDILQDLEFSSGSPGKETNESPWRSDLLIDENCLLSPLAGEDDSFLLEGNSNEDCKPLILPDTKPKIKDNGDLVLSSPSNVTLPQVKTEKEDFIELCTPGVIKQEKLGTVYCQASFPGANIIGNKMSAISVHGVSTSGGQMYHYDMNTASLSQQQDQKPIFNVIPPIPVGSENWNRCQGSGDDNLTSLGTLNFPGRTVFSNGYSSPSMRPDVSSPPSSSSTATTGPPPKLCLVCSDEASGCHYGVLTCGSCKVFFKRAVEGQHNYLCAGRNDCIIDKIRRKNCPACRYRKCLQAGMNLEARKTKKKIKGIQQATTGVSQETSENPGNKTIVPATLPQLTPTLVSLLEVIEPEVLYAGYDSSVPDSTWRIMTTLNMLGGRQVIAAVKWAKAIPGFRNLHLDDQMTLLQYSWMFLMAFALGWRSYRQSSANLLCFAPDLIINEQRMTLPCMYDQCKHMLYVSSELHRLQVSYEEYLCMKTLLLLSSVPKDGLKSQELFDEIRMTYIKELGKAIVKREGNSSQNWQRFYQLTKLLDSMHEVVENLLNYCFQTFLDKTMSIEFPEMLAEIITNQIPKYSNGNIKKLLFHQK
# Sequence of UniProt P19793 (P19793 whole entry, looked up): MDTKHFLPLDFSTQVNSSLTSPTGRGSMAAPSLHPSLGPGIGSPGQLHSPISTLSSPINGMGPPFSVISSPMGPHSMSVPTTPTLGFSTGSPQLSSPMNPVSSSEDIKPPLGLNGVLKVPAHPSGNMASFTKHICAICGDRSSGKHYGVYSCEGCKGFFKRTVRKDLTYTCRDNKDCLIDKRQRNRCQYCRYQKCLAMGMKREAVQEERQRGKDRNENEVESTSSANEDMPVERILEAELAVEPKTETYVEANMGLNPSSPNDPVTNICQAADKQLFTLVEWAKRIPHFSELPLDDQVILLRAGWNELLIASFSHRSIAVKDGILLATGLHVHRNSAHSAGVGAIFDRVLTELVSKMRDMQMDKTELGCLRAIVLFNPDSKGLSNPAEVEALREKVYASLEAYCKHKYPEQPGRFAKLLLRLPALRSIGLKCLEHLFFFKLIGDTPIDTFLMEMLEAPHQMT
structure (smiles),measurement,setting,value
O=[N+]([O-])c1ccc(Cl)cc1Cl,"activity change, negative = cytotoxicity",[1],inactive: -0.364%
same,Potency,[2],"inconclusive: 79.4 µM [rising, single point]"
same,Potency,[3],inactive
same,Potency,[4],inactive
same,activation,[5],inconclusive: 5.58%
same,activation,[6],inconclusive: 3.17%
same,Potency,[7],inactive
COc1ccc(C(=O)Nc2ccccc2)cc1[N+](=O)[O-],"viability change, negative = cytotoxic",[8],inconclusive: -33.1%
same,Potency,[9],"inconclusive: 0.0016 µM [cytotoxic, full curve, poor fit]"
same,Potency,[3],inactive
same,Potency,[10],"inconclusive: 79.4 µM [cytotoxic, single point]"
same,Potency,[11],inactive
same,Potency,[12],"inconclusive: 79.4 µM [cytotoxic, single point]"
same,Potency,[13],"inconclusive: 63.1 µM [cytotoxic, single point]"
same,Potency,[14],"inconclusive: 20 µM [side channel, rising, partial curve, poor fit]"
same,Potency,[15],inactive
same,Potency,[16],inactive
same,Potency,[17],inactive
same,Potency,[18],"inconclusive: 14.1 µM [falling, full curve]"
same,Potency,[5],"inconclusive: 75 µM [activator, single point]"
same,activation,[6],inconclusive: 1.85%
same,Potency,[19],"inconclusive: 84.1 µM [activator, partial curve, poor fit]"
Cc1ccc2oc(=O)ccc2c1,"viability change, negative = cytotoxic",[8],inconclusive: -31.1%
same,"activity change, negative = fewer live cells",[20],inactive: -3.29%
same,Potency,[21],"inconclusive: 10 µM [cytotoxic, partial curve, poor fit]"
same,Potency,[22],"inconclusive: 31.6 µM [cytotoxic, partial curve]"
same,Potency,[23],inactive
same,Potency,[24],inactive
same,Potency,[15],"inactive and inconclusive: 28.2 µM [activator, single point]"
same,Potency,[25],inactive
same,Potency,[4],inactive
same,Potency,[26],inactive
same,Potency,[5],active: 8.63 µM
same,Potency,[19],"inconclusive: 2.66 µM [activator, full curve, poor fit] and inconclusive: 13.7 µM [activator, partial curve, poor fit]"
